Data taken from the supplement of paper PMC12217912.
The other results are listed elsewhere or left out. The full chains were built here from the parent and the listed change. Values near 0.05 are background.

B1: TEV protease; numbered along this chain (parent)
chain: MGESLFKGPRDYNPISSSICHLTNESDGHTTSLYGIGFGPFIITNKHLFRRNNGTLVVQSLHGVFKVKDTTTLQQHLVDGRDMIIIRMPKDFPPFPQKLKFREPQREERICLVTTNFQTKSMSSMVSDTSCTFPSGDGIFWKHWIQTKDGQCGSPLVSTRDGFIVGIHSASNFTNTNNYFTSVPKNFMELLTNQEAQQWVSGWRLNADSVLWGGHKVFMVKPEEPFQPVKEATQL

Variants of: B1
Assay: raw area under fraction-flipped curve 0-4 h after induction (AUC4h, not background-subtracted), DNA-recorder readout of cleavage of the substrate (dimensionless); higher = more cleavage of the substrate by the protease variant
Conditions: temperature: 34 °C; time window: 0-4 h after rhamnose induction
Procedure: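 In vivo DNA recorder in E. coli TOP10(DE3) ΔrhaA at 34 °C. Each TEVp single-site mutant (parent TEVp 0) is paired with a single-site variant of the 7-mer TEVs (canonical ENLYFQ|S). The substrate sits between flexible linkers in a Bxb1-sfGFP-TEVs-SsrA fusion, so cleavage stabilises Bxb1 and speeds flipping of a recombination array, read by NGS. The value is the raw area under the fraction-flipped curve over 0-4 h after rhamnose induction (AUC4h), with ≥20 reads per time point. It is not background-subtracted; inactive controls average about 0.047.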
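Also: Bxb1 expression induced with 0.2% (w/v) L-rhamnose at OD600 near 0.5, cultures sampled hourly, flipped fraction per protease–substrate barcode pair counted by paired-end Illumina sequencing.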

| Variant | area with substrate ENLYFAS | area with substrate ENLYFCS | area with substrate ENLYFES | area with substrate ENLYFFS | area with substrate ENLYFHS | area with substrate ENLYFIS | area with substrate ENLYFLS | area with substrate ENLYFMS | area with substrate ENLYFNS | area with substrate ENLYFPS | area with substrate ENLYFRS | area with substrate ENLYFTS | area with substrate ENLYFVS | area with substrate ENLYFYS | area with substrate ENLYFDS | area with substrate ENLYFGS | area with substrate ENLYFKS | area with substrate ENLYFWS | area with substrate ENLYFSS |
| --- | --- | --- | --- | --- | --- | --- | --- | --- | --- | --- | --- | --- | --- | --- | --- | --- | --- | --- | --- |
| MGESLFKGPRDYNPFSSSICHLTNESDGHTTSLYGIGFGPFIITNKHLFRRNNGTLVVQSLHGVFKVKDTTTLQQHLVDGRDMIIIRMPKDFPPFPQKLKFREPQREERICLVTTNFQTKSMSSMVSDTSCTFPSGDGIFWKHWIQTKDGQCGSPLVSTRDGFIVGIHSASNFTNTNNYFTSVPKNFMELLTNQEAQQWVSGWRLNADSVLWGGHKVFMVKPEEPFQPVKEATQL [I15F] | 0.0595 | 0.0553 | 0.0626 | 0.0638 | 0.0639 | 0.0552 | 0.0605 | 0.0644 | 0.0672 | 0.0625 | 0.0549 | 0.0524 | 0.0517 | 0.0429 |  |  |  |  |  |
| MGESLFKGPRDYNPLSSSICHLTNESDGHTTSLYGIGFGPFIITNKHLFRRNNGTLVVQSLHGVFKVKDTTTLQQHLVDGRDMIIIRMPKDFPPFPQKLKFREPQREERICLVTTNFQTKSMSSMVSDTSCTFPSGDGIFWKHWIQTKDGQCGSPLVSTRDGFIVGIHSASNFTNTNNYFTSVPKNFMELLTNQEAQQWVSGWRLNADSVLWGGHKVFMVKPEEPFQPVKEATQL [I15L] | 0.0571 | 0.0642 | 0.0517 | 0.071 | 0.06 | 0.0598 | 0.0608 | 0.0682 | 0.066 |  | 0.0611 | 0.046 | 0.0581 |  | 0.0535 | 0.053 | 0.0568 | 0.0678 |  |
| MGESLFKGPRDYNPIFSSICHLTNESDGHTTSLYGIGFGPFIITNKHLFRRNNGTLVVQSLHGVFKVKDTTTLQQHLVDGRDMIIIRMPKDFPPFPQKLKFREPQREERICLVTTNFQTKSMSSMVSDTSCTFPSGDGIFWKHWIQTKDGQCGSPLVSTRDGFIVGIHSASNFTNTNNYFTSVPKNFMELLTNQEAQQWVSGWRLNADSVLWGGHKVFMVKPEEPFQPVKEATQL [S16F] | 0.0524 |  | 0.0596 | 0.0691 | 0.0696 | 0.0551 |  | 0.068 | 0.109 | 0.0484 | 0.039 |  | 0.0539 |  |  | 0.0378 |  |  | 0.0573 |
| MGESLFKGPRDYNPIKSSICHLTNESDGHTTSLYGIGFGPFIITNKHLFRRNNGTLVVQSLHGVFKVKDTTTLQQHLVDGRDMIIIRMPKDFPPFPQKLKFREPQREERICLVTTNFQTKSMSSMVSDTSCTFPSGDGIFWKHWIQTKDGQCGSPLVSTRDGFIVGIHSASNFTNTNNYFTSVPKNFMELLTNQEAQQWVSGWRLNADSVLWGGHKVFMVKPEEPFQPVKEATQL [S16K] | 0.063 | 0.0704 | 0.0618 | 0.0662 | 0.0544 | 0.0552 |  | 0.0602 | 0.06 | 0.0563 | 0.0544 | 0.0469 |  |  |  | 0.0686 | 0.0594 | 0.0607 | 0.0323 |
| MGESLFKGPRDYNPISCSICHLTNESDGHTTSLYGIGFGPFIITNKHLFRRNNGTLVVQSLHGVFKVKDTTTLQQHLVDGRDMIIIRMPKDFPPFPQKLKFREPQREERICLVTTNFQTKSMSSMVSDTSCTFPSGDGIFWKHWIQTKDGQCGSPLVSTRDGFIVGIHSASNFTNTNNYFTSVPKNFMELLTNQEAQQWVSGWRLNADSVLWGGHKVFMVKPEEPFQPVKEATQL [S17C] | 0.0607 | 0.0682 | 0.0634 | 0.0692 | 0.0581 | 0.0601 |  | 0.0607 | 0.0724 | 0.067 | 0.0518 | 0.0493 | 0.0551 | 0.0545 | 0.0717 | 0.0577 |  | 0.0644 | 0.0616 |
| MGESLFKGPRDYNPISGSICHLTNESDGHTTSLYGIGFGPFIITNKHLFRRNNGTLVVQSLHGVFKVKDTTTLQQHLVDGRDMIIIRMPKDFPPFPQKLKFREPQREERICLVTTNFQTKSMSSMVSDTSCTFPSGDGIFWKHWIQTKDGQCGSPLVSTRDGFIVGIHSASNFTNTNNYFTSVPKNFMELLTNQEAQQWVSGWRLNADSVLWGGHKVFMVKPEEPFQPVKEATQL [S17G] | 0.0504 | 0.0662 | 0.051 | 0.0704 | 0.0612 | 0.054 | 0.0643 | 0.0553 | 0.0715 | 0.0644 | 0.0609 | 0.0579 | 0.058 | 0.055 | 0.0625 | 0.0641 | 0.0673 |  | 0.0507 |
| MGESLFKGPRDYNPISSNICHLTNESDGHTTSLYGIGFGPFIITNKHLFRRNNGTLVVQSLHGVFKVKDTTTLQQHLVDGRDMIIIRMPKDFPPFPQKLKFREPQREERICLVTTNFQTKSMSSMVSDTSCTFPSGDGIFWKHWIQTKDGQCGSPLVSTRDGFIVGIHSASNFTNTNNYFTSVPKNFMELLTNQEAQQWVSGWRLNADSVLWGGHKVFMVKPEEPFQPVKEATQL [S18N] | 0.0565 | 0.0609 | 0.0706 | 0.0873 | 0.0653 | 0.0547 |  | 0.0776 | 0.07 | 0.0543 |  | 0.0632 |  | 0.0525 |  | 0.0353 | 0.0569 | 0.0535 | 0.0481 |
| MGESLFKGPRDYNPISSTICHLTNESDGHTTSLYGIGFGPFIITNKHLFRRNNGTLVVQSLHGVFKVKDTTTLQQHLVDGRDMIIIRMPKDFPPFPQKLKFREPQREERICLVTTNFQTKSMSSMVSDTSCTFPSGDGIFWKHWIQTKDGQCGSPLVSTRDGFIVGIHSASNFTNTNNYFTSVPKNFMELLTNQEAQQWVSGWRLNADSVLWGGHKVFMVKPEEPFQPVKEATQL [S18T] | 0.0563 | 0.0523 | 0.0773 | 0.0596 | 0.0645 | 0.053 |  | 0.0604 | 0.0646 | 0.048 |  |  |  | 0.0469 |  |  | 0.0708 |  |  |
